± gives the standard deviation of the averaged measurements. Some of the results follow.
system: PfAP2-EXP AP2 domain (GST-tagged); assay: gcPBM binding intensity (ln(normalized median fluorescence intensity)); higher = stronger DNA binding
Outline: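 The highest Masliner-normalised natural-log median intensity across replicate spots of either probe orientation is reported as binding intensity. GST-tagged P. falciparum DNA-binding domains expressed in E. coli were applied for 1 h to an Agilent 4 × 180k array of primer-extended double-stranded 36-bp intergenic genomic probes plus negative controls, and bound protein was detected with Alexa488 anti-GST antibody and scanned at 488 nm.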

Row | Sequence | gcPBM binding intensity (ln)
1 | TTTTTTTTTTTTTTTTTTTTCTTCATTTAATTTATA [GTGCAC_negctrl_site17] | 8.06 ± 0.4
2 | ATTATATTTCAATTATGTACATATAAAATGAATAAA [XGTACX_site4204] | 8.43 ± 0.38
3 | TTTTTTTATTATTATTGTACAAGGCCTTAGGTGATT [XGTACX_site5050] | 8.55 ± 0.41
4 | TTTTCATGTTTTTTTCTTTATTTTTTTTTTTTTTTT [GTGCAC_negctrl_site511] | 8.37 ± 0.64
5 | TACTTAATTATAAGGACATGCACAAAAGGAATTATT [TGCATGCA_site468] | 9.05 ± 0.34
6 | TTTACACTTTTTTTTGTACACACTAATAAGATTAAC [CACACA_site9304] | 8.8 ± 0.31
7 | TTTTAATTAAATACAAAAAAAAAAAAAAAAAAAAAA [CACACA_negctrl_site1631] | 7.89 ± 0.32
8 | ACATTACAATTATTATAATCAATATATAACCTCTAA [TGCATGCA_negctrl_site105] | 8.34 ± 0.38
9 | AAAAAAATTTTTAAAAGTACATTAATATTAATATGT [XGTACX_site5177] | 8.77 ± 0.35
10 | ATAAAATTATATACTCGTACACAAAAAAAAAAAATA [XGTACX_site6035] | 8.48 ± 0.52
11 | AAATATATTTTTTTTTGTACTCAAAAAGAAAAAAAA [XGTACX_site8540] | 8.28 ± 0.34
12 | AAAAATTGAATGATGTGTACTTAAAAGAATATAGAA [XGTACX_site6588] | 8.74 ± 0.23
13 | TATATAATAACATATGCATGCAAGTAATATAACCAA [TGCATGCA_site324] | 9.96 ± 0.13
14 | TATAATATATATGTAACACACAAAAGTTATATACTT [CACACA_site2868] | 8.28 ± 0.37
15 | CATTAATATATATATAGTACATATACACCTTCATTA [XGTACX_site8473] | 8.38 ± 0.13
16 | AAAAAAAATCAGACAGGTACACATTCCATGTTCAAA [XGTACX_site5380] | 8.37 ± 0.51
17 | ATATATTATATTTAAGTGCATTAATTAAAATGCTTA [GTGCAC_site9403] | 8.49 ± 0.23
18 | TAAGAATACGAAAGGTGTACACTGTGGAGACTTCAA [XGTACX_site2619] | 9.06 ± 0.43
19 | ATAATTAAATAAAAAAGTACACATACATCATAATGC [XGTACX_site7656] | 8.84 ± 0.29
20 | CAATTAAAAAATAATACATGCATATAAATAGATATT [TGCATGCA_site427] | 8.71 ± 0.38
21 | TATGAAGTGCACAATACACACTAATTCTATATAAAT [CACACA_site7269] | 8.95 ± 0.3
22 | AAAATAAATATAAAATGTACTTATATATATATATAT [XGTACX_site7803] | 9.97 ± 0.47

Row | Sequence | gcPBM binding intensity (ln)
23 | TTGCACTCGTAAAAAGCACACATATAAAAACATTTA [CACACA_site7997] | 8.57 ± 0.4
24 | TTAAAAATGTTATAATGTACATATAATATTTTATGA [XGTACX_site5954] | 8.29 ± 0.38
25 | TATATATATATATATATATATATTTTTATTATATAT [XGTACX_negctrl_site89] | 10.2 ± 0.52
26 | ATTATAAATATAAATATAAATATATATTGTTCCGCA [TGCATGCA_negctrl_site470] | 8.18 ± 0.39
27 | AAAAAAAACAGACACACACACAAATATTTATATATC [CACACA_site6342] | 8.79 ± 0.48
28 | TTTATCCTTCTTTTGAGTACTCAAAGAGACCTATAA [XGTACX_site8050] | 8.89 ± 0.45
29 | ATTATAAATAAAATATGTACATATGTATAAATACAT [XGTACX_site4002] | 8.43 ± 0.38
30 | AAAACACATACTATATGTACATATAATAATTTATAT [XGTACX_site4525] | 8.51 ± 0.29
31 | TTCTGTATATAGTGTGCACACAATTAAAAAAAAAAA [CACACA_site8400] | 8.79 ± 0.4
32 | AAGAAAAAAAAAAAAAAAAAAAAAAAAAAAAAAAAA [TGCATGCA_negctrl_site263] | 7.86 ± 0.27
33 | TAGATACAGAAACACACACACACATACATATATACA [CACACA_site3437] | 8.79 ± 0.57
34 | AATAAATTAAAACAGGTGCACTATATTACACACGCT | 8.98 ± 0.085
35 | AGAATTATTGTTAATGCATGTGGAAGTTAAAATATT [TGCATGCA_site188] | 9.04 ± 0.47
36 | TTATGGAGAGTTATATGTACGAAAAATATGTATAAG [XGTACX_site515] | 8.86 ± 0.45
37 | TATATAGTAATTTATTCACACAATTGGCACACCTCA [CACACA_site4679] | 8.71 ± 0.35
38 | TATTTAAATTGTAAGTGTACATATATAAATGTAAAA [XGTACX_site1609] | 8.52 ± 0.23
39 | TATAATATATATTTGTGTCCACAACATTTTTAATAT [XGTACX_site2089] | 8.56 ± 0.28
40 | TAGATACATACACGCACACACATATATAAATAAATA [CACACA_site6157] | 8.69 ± 0.49
41 | AAAAAAAACAGACACACACACATACACATACATACA [CACACA_site2857] | 8.72 ± 0.33
42 | TAATTATGTACTATTATACACACGTTTAATTGTAAA [CACACA_site206] | 8.52 ± 0.28
43 | TTACGTATGTATTATGTTGTATATGAAATTAAAAAA [GTGCAC_negctrl_site292] | 8.21 ± 0.39
44 | AATAATATATGGTGTACACAAAAGTATAAATAATTT [CACACA_site5338] | 9.05 ± 0.29

Row | Sequence | gcPBM binding intensity (ln)
45 | TATAAAAAAATAATAAATAAATAAAAAGATTTCTTT [TGCATGCA_negctrl_site122] | 7.83 ± 0.47
46 | TTGTGAATAACTAAGAAGAAAAAGATAAATATGTAT [TGCATGCA_negctrl_site388] | 8.82 ± 0.45
47 | TATTCATGCATATACACACACATATATTTATATTTT [CACACA_site7786] | 8.77 ± 0.35
48 | AATAATATTGAAATGTGTACGTATTTATATTTTATG [XGTACX_site8252] | 8.6 ± 0.31
49 | TTTTTCTTTTTTACAGTGCATAAATATATGTATTGT [GTGCAC_site9399] | 8.61 ± 0.32
50 | TTTTGTTATATTCAATATTTATATATTATAAATATA [CACACA_negctrl_site1705] | 8.43 ± 0.38
51 | AGCCATTATAATTCTTGTACATAATATAGCTATTTT [XGTACX_site1723] | 8.88 ± 0.4
52 | ACATATATATAATATATATTTTTCGTGTGGTGTCAC [CACACA_negctrl_site543] | 8.43 ± 0.47
53 | GAGCACCAAAATATATGTACATATGATAAATGTGAA [XGTACX_site1130] | 8.9 ± 0.4
54 | TTTTTTATTTTATTTTTTTCTGCTTATCCACATTAG [XGTACX_negctrl_site108] | 8.73 ± 0.36
55 | TCACTTTTATAATATAATATTCTATATCTTATTTTT [GTGCAC_negctrl_site717] | 8.38 ± 0.39
56 | AATATATATATAGGATGTACACATAATTCAAATATA [XGTACX_site2755] | 8.76 ± 0.22
57 | ATCATTGAAGTTAAAAATATAAAGTATTCAGAAGGG [XGTACX_negctrl_site560] | 8.74 ± 0.52
58 | ACCATACATACATACACACACACACCCATATATATA [CACACA_site2917] | 8.94 ± 0.45
59 | TTTCATGTTTTAAAGTGTACATAAATATATTATATG [XGTACX_site3367] | 8.57 ± 0.38
60 | TTGTTAGAGTATATTGAAAGGATAACCTTTTTTTAT [XGTACX_negctrl_site122] | 8.03 ± 0.34
61 | TTGTGTTTGCGTAAATGTACGGAAAGACTTGAAGAC [XGTACX_site7235] | 8.96 ± 0.35
62 | TTTTTAATAAAATGATTGATAATTATTAAATTAAAA [CACACA_negctrl_site488] | 7.86 ± 0.4
63 | TAACATATCTTTAATACACACTTAAAAAAGTACTTA [CACACA_site4532] | 8.27 ± 0.39
64 | ACACTTAAATATTGTTGTACAAAATGATAAAATGTA [XGTACX_site4588] | 8.6 ± 0.33
65 | GGAAACACAATATATACACACATATATATATATATA [CACACA_site235] | 9.95 ± 0.49
66 | TTATATAACCCTCATGCATGCTAAGAAAAAAAAAAC [TGCATGCA_site936] | 9.57 ± 0.35

Row | Sequence | gcPBM binding intensity (ln)
67 | ATTTATATTATAATATGTACACAAAAAAAATTAGGA [XGTACX_site565] | 8.78 ± 0.37
68 | TTGATGTATACAATGTAGATTATTTAATATTTCAAT [GTGCAC_negctrl_site203] | 8.13 ± 0.41
69 | ATTTTTAAGCATATCAAAAAAAAAAAAAAAATTAAT [CACACA_negctrl_site980] | 8.01 ± 0.23
70 | TTACTAAAAATTATTAATAAATAATAATTATAAATT [GTGCAC_negctrl_site310] | 7.89 ± 0.45
71 | TAAAAAGGAAAACACACACACACATATATATATATA [CACACA_site3588] | 10.2 ± 0.16
72 | TTTCCAATTAGTTTTGCATGTTGAAAAAATGTTGGA [TGCATGCA_site1035] | 8.32 ± 0.33
73 | TTATTATTAAGACACACACACAAAAAAAAAAAAAAA [CACACA_site6805] | 8.26 ± 0.49
74 | TATTTTAACTTCTCATGTACATATATTATGTCTATA [XGTACX_site249] | 9.01 ± 0.39
75 | CTTTGTAGTATATTAACACACAACTATTTATAATAT [CACACA_site3934] | 8.3 ± 0.3
76 | TATCATAAACTTCCTTACTATACTTTTCTTATTCAT [CACACA_negctrl_site1341] | 8.78 ± 0.35
77 | TTTCGATTAAAAATTGTACAATATAAGGAGCACACA [GTGCAC_negctrl_site476] | 9.12 ± 0.42
78 | ATGAAAATTATAAAGTGTACATATAGAAACATTTAC [XGTACX_site8047] | 8.365 ± 0.049
79 | ACTGTAACAATCATGGGTACAAATAAAATAATATCT [XGTACX_site99] | 8.74 ± 0.47
80 | TAAAAAAAAAAATGAACATGCAACAATTGTGATGAA [TGCATGCA_site332] | 8.93 ± 0.41
81 | AACCACAGACATATAACACACATATACAATATATAT [CACACA_site5142] | 8.66 ± 0.28
82 | CTTTTTTTGACCTTAGTGCAAATAACTATATATTAT | 8.8 ± 0.16
83 | TTTTGTCTTATATGTTGTACAACGTAAACAAAAAAA [XGTACX_site4412] | 8.65 ± 0.28
84 | AAAAGAATATATAATTGTACTTAAAATATAATTAAG [XGTACX_site4484] | 8.29 ± 0.26
85 | TTTAATCATATGTTATATAATAAGCCCCCCCCCCAA [CACACA_negctrl_site486] | 11 ± 0.12
86 | AAAAAAATTAAACATGAAGAATAAGGAACAAAAAAA [CACACA_negctrl_site1607] | 9.02 ± 0.46
87 | ATTTAAGTAGTACATACACACACATATACAAAAAGA [CACACA_site9317] | 9 ± 0.44
